Laboratory results: the supplement of paper PMC6206098
± gives the uncertainty stated by the source. The sequences are guide strands of siRNAs; only the seed at positions 2 to 7 varies.

How the values were obtained:
3LL = assay: cell viability relative to siNT1 control; higher = less toxic; conditions: concentration: 10 nM; 96 h; Mus musculus;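 further: Luminescence-based viability of cells reverse transfected in 384-well plates with lipid-complexed siRNAs built on a non-toxic 19mer backbone whose passenger strand carries 2′-O-methyl groups at positions 1 and 2, triplicates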
HeyA8 = assay: cell viability relative to lipid-only control; HeyA8 human ovarian and H460 human lung cancer; M565 mouse liver and 3LL mouse lung cancer; siNT1 is a non-toxic control siRNA; higher = less toxic; conditions: concentration: 10 nM; 96 h; Homo sapiens
H460 = assay: as above; conditions: concentration: 10 nM; 96 h; Homo sapiens
M565 = assay: as above; conditions: concentration: 10 nM; 96 h; Mus musculus
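Wherever cell viability relative to lipid-only control is given: reverse lipid transfection in 384-well plates, in triplicate, of duplexes on a non-toxic 19mer backbone with passenger strand 2′-O-methylated at positions 1 and 2, luminescence viability read-out.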

Row | Sequence | cell viability (3LL) [%] | cell viability (HeyA8) [%] | cell viability (H460) [%] | cell viability (M565) [%]
1 | UGAGUAAACAUGUAAACCAAA | 90 ± 19 | 96.7 ± 1.8 | 90.9 ± 11 | 38.4 ± 8.1
2 | UAUCUGCACAUGUAAACCAAA | 33.4 ± 1.8 | 80.5 ± 1.6 | 43.8 ± 3.7 | 46.6 ± 9.3
3 | UCAUUAAACAUGUAAACCAAA | 89.3 ± 11 | 73.8 ± 5 | 57.8 ± 9.7 | 68.1 ± 6.7
4 | UAGGUUAACAUGUAAACCAAA | 80.6 ± 11 | 79.9 ± 2.6 | 70.9 ± 13 | 53 ± 3.8
5 | UAUACCGACAUGUAAACCAAA | 114 ± 15 | 95.3 ± 6.1 | 67.8 ± 6.9 | 115 ± 12
6 | UGCGCCUACAUGUAAACCAAA | 58.1 ± 12 | 46.3 ± 2.7 | 36.9 ± 1.7 | 38.4 ± 8.4
7 | UGGAUGUACAUGUAAACCAAA | 20.7 ± 7.9 | 14.5 ± 4.4 | 60.2 ± 13 | 19 ± 5
8 | UUGUCCGACAUGUAAACCAAA | 59.8 ± 5.7 | 91.8 ± 10 | 54.5 ± 5.8 | 38.6 ± 2.5
9 | UGGUCAAACAUGUAAACCAAA | 92.7 ± 7 | 58.9 ± 3.7 | 31.8 ± 2.9 | 93.7 ± 22
10 | UUCGCUUACAUGUAAACCAAA | 74.4 ± 11 | 90.2 ± 16 | 69.1 ± 11 | 65.6 ± 8.9
11 | UACCCUAACAUGUAAACCAAA | 91.6 ± 7.2 | 86 ± 8.9 | 70 ± 13 | 57 ± 0.81
12 | UGAGGAGACAUGUAAACCAAA | 76.1 ± 9.9 | 38.9 ± 4.3 | 55 ± 4.8 | 15.4 ± 2.6
13 | UAAUCAUACAUGUAAACCAAA | 113 ± 6.7 | 95 ± 4.5 | 76.9 ± 8.3 | 80.4 ± 4.5
14 | UGUGGGGACAUGUAAACCAAA | 13.7 ± 4 | 3.28 ± 0.59 | 20.3 ± 1.6 | 7.71 ± 4.2
15 | UACUUAGACAUGUAAACCAAA | 99.9 ± 6.8 | 81.2 ± 5.7 | 74.1 ± 16 | 53.1 ± 14
16 | UAGGAUCACAUGUAAACCAAA | 62.7 ± 12 | 13.8 ± 2 | 34.8 ± 0.59 | 66.9 ± 5.8
17 | UACAGCUACAUGUAAACCAAA | 14.5 ± 7.6 | 52.5 ± 2.3 | 59 ± 6.7 | 14.6 ± 1.6
18 | UUUUGAGACAUGUAAACCAAA | 102 ± 5.7 | 99.8 ± 3.3 | 100 ± 14 | 103 ± 20
19 | UAUGCCCACAUGUAAACCAAA | 16.6 ± 2.6 | 68.8 ± 3.4 | 57.9 ± 7.6 | 60 ± 10
20 | UGGGGACACAUGUAAACCAAA | 30.9 ± 4.3 | 9.99 ± 0.62 | 33.3 ± 3 | 17.6 ± 2.8
21 | UGCUCAAACAUGUAAACCAAA | 80.5 ± 8.5 | 68.6 ± 6.8 | 70.2 ± 15 | 80.9 ± 7.6
22 | UGCGACCACAUGUAAACCAAA | 71 ± 9 | 13.3 ± 1.6 | 39.5 ± 2 | 39.1 ± 14
23 | UUACAGCACAUGUAAACCAAA | 22.1 ± 9 | 71.6 ± 5.3 | 63.9 ± 7.9 | 34.5 ± 7.1
24 | UCAAAUGACAUGUAAACCAAA | 83.5 ± 7.1 | 82.9 ± 3.6 | 69 ± 10 | 72.8 ± 12

Row | Sequence | cell viability (3LL) [%] | cell viability (HeyA8) [%] | cell viability (H460) [%] | cell viability (M565) [%]
25 | UGAUAGAACAUGUAAACCAAA | 46.6 ± 13 | 59.2 ± 2.4 | 50.7 ± 6.5 | 50.4 ± 3.5
26 | UCGCUGUACAUGUAAACCAAA | 51.3 ± 13 | 77 ± 12 | 89.4 ± 3.5 | 31.8 ± 2.6
27 | UAUAGAUACAUGUAAACCAAA | 107 ± 17 | 90.4 ± 9.2 | 69.4 ± 4.9 | 102 ± 10
28 | UGGGAUGACAUGUAAACCAAA | 53 ± 9.9 | 12.1 ± 0.26 | 39.9 ± 3.5 | 23 ± 8.8
29 | UUCCGCCACAUGUAAACCAAA | 11.4 ± 2.2 | 27.2 ± 7.8 | 42.1 ± 1.7 | 11.4 ± 4.7
30 | UAGGAUGACAUGUAAACCAAA | 81.8 ± 0.93 | 78.3 ± 11 | 59.4 ± 3 | 34.5 ± 7.4
31 | UUCGGCAACAUGUAAACCAAA | 99.1 ± 18 | 77.5 ± 11 | 81.6 ± 4.6 | 84.1 ± 6.9
32 | UUGUGGUACAUGUAAACCAAA | 5.94 ± 1.6 | 40.5 ± 5.5 | 56.6 ± 4.1 | 20.1 ± 3.3
33 | UAGAAAGACAUGUAAACCAAA | 91.4 ± 8.8 | 84.2 ± 8.4 | 80.8 ± 16 | 72.9 ± 14
34 | UGCCAUUACAUGUAAACCAAA | 84.9 ± 10 | 56.08 ± 0.52 | 56 ± 5.2 | 21.3 ± 2.7
35 | UUGCCUAACAUGUAAACCAAA | 88.7 ± 9.8 | 97.2 ± 9.7 | 84.4 ± 2.1 | 59.7 ± 9.8
36 | UCCCCUCACAUGUAAACCAAA | 95.3 ± 13 | 54 ± 0.98 | 47.9 ± 2.8 | 38.6 ± 12
37 | UGGUAAGACAUGUAAACCAAA | 86.4 ± 8.4 | 80.2 ± 8.4 | 73.6 ± 10 | 72.5 ± 16
38 | UAAUAAGACAUGUAAACCAAA | 115 ± 6.1 | 89.2 ± 5.5 | 98.2 ± 5.5 | 93.4 ± 22
39 | UGCGAUUACAUGUAAACCAAA | 94.2 ± 14 | 61.6 ± 1.5 | 47.4 ± 5.4 | 87.9 ± 1.1
40 | UUUCACGACAUGUAAACCAAA | 103 ± 4 | 102 ± 1.3 | 20.7 ± 2.7 | 85.2 ± 13
41 | UUCAUUUACAUGUAAACCAAA | 58.7 ± 5.1 | 57.5 ± 6.9 | 63.7 ± 8.7 | 73.4 ± 14
42 | UGUGGUCACAUGUAAACCAAA | 15.9 ± 6.4 | 30.2 ± 2.6 | 21.6 ± 2.3 | 30.8 ± 7.4
43 | UUUCCCUACAUGUAAACCAAA | 83.9 ± 13 | 75.6 ± 4.3 | 64.2 ± 6.4 | 77.6 ± 2.5
44 | UUUUUUCACAUGUAAACCAAA | 93.7 ± 4.9 | 69.7 ± 8.8 | 69.1 ± 8.1 | 126 ± 14
45 | UAUAAUAACAUGUAAACCAAA | 100 ± 14 | 98.9 ± 9.1 | 83 ± 22 | 77.5 ± 9.7
46 | UCCGAUCACAUGUAAACCAAA | 89.3 ± 30 | 66.9 ± 6 | 46.5 ± 1.4 | 48.2 ± 12
47 | UUCAAGCACAUGUAAACCAAA | 34.3 ± 3.9 | 60.8 ± 6.9 | 65.3 ± 5.8 | 8.84 ± 1.6
48 | UCCUUGGACAUGUAAACCAAA | 72.1 ± 11 | 22.5 ± 1.4 | 66.4 ± 7.6 | 44.5 ± 2.9
